± gives the standard deviation of the averaged measurements. Some of the results follow.

For the experiment, the system named is PfAP2-LT AP2 domain (GST-tagged). In words: gcPBM binding intensity (ln(normalized median fluorescence intensity)); higher = stronger DNA binding. The procedure, abridged:
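DNA-binding domains from P. falciparum, fused to GST and produced in E. coli, were put on an Agilent 4 × 180k double-stranded probe array for 1 h in 1× PBS holding 1% milk, 0.2 mg/ml BSA, 0.5% salmon testes DNA and 0.03% Triton X-100. Probes were primer-extended, 36 bp long and drawn from intergenic genomic regions, with negative controls included. After Alexa488 anti-GST antibody detection and a 488 nm scan, binding intensity was set as the highest Masliner-normalised natural-log median intensity across replicate spots of either probe orientation.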
Turning to “AAAATTATCGTTATATGTACGCATCTTAATACGTAT [XGTACX_site4063]”, the “gcPBM binding intensity (ln)” value came out at 8.86 ± 0.3.
The same measure for “TAACTTTTTTTTTTTTTTTTTTAACTTTTATGTAAT [GTGCAC_negctrl_site156]”: 8.32 ± 0.56; for “TTTTACAATATTTTGTGTACTTATATTATGAGCTTA [XGTACX_site3287]”: 8.58 ± 0.45.
The same measure for “TTTGTCAACCAAAATTGTACAAATGTATTCCCAATA [XGTACX_site1350]”: 8.57 ± 0.36; for “TTATTTATCAAAAAATGTACAAAAATATATAAACAA [XGTACX_site940]”: 8.64 ± 0.45.
Then “TTTTAAAAAAGAAAAAAAAAGGATCAGAGAAATATT [GTGCAC_negctrl_site79]”, with 8.35 ± 0.59.
Take “TTATATTTATTTAATGAACACACGATATATTATTTT [CACACA_site1601]”: the “gcPBM binding intensity (ln)” value was 8.66 ± 0.41.
For the sequence “AAATGTTAATTAAATGCATGTACAAAAGGAGCGAAT [TGCATGCA_site942]”, the “gcPBM binding intensity (ln)” value was 9.25 ± 0.42.
Turning to “AAAAAAATTAATAATGTGCACTTTTTAGTATTTTTA [GTGCAC_site9744]”, the “gcPBM binding intensity (ln)” value was found to be 8.53 ± 0.49.
Consider “TTGTAGATATTTATATGTACGAATTTATAAATATAG [XGTACX_site3611]”, for which the “gcPBM binding intensity (ln)” value turned out to be 8.4 ± 0.4.
The same measure for “CTCAAAAAATATGAACGTACAAAATAAGTAATGACA [XGTACX_site590]”: 8.96 ± 0.46; for “TTTTTTTTTTTTTTTGCACACATTTTAATTATTTTT [CACACA_site341]”: 9.08 ± 0.44; for “AACTCATAGGAGTGTGCACACAAAAAATTAAAAAAA [CACACA_site8996]”: 9.53 ± 0.67.
The same measure for “ATACATATTAATATGTGTACACATTTTTATTTTTTT [XGTACX_site930]”: 8.99 ± 0.46; for “AAAAAAAAAAAAAAAGGTACACAAAACGGTATTATT [XGTACX_site7064]”: 8.94 ± 0.38; for “TTTTTTTTTTTTGTCACACATATGGAATATATCTAT [CACACA_site5899]”: 8.74 ± 0.47.
The same measure for “TTATAACTTTTCACAAGTACATATATATATGTATAA [XGTACX_site2306]”: 8.56 ± 0.3; for “ATATATATGTTTTTATGTACATATTTTTCTCCTTCA [XGTACX_site5899]”: 8.94 ± 0.44.
Turning to “AATAAATTCATGAATTGTACGTAATGATAACATGAA [XGTACX_site2591]”, the “gcPBM binding intensity (ln)” value came to 9.04 ± 0.39.
“TTTTTATTCCAGTATTCACACACGAATAACCACATA [CACACA_site1897]”: the “gcPBM binding intensity (ln)” value stood at 9.05 ± 0.46.
On to “ATTTTCTTTTTTAAACGTACACATATTAAATATATA [XGTACX_site7773]”, for which the “gcPBM binding intensity (ln)” value amounted to 8.62 ± 0.49.
On to “AGATGAGAGATATATACACACAATAATACCTATTTA [CACACA_site6542]”, for which the “gcPBM binding intensity (ln)” value amounted to 9.12 ± 0.56.
As for “TTTAAAAAGTTATGAAGTACATATATATATATATAT [XGTACX_site2188]”, the “gcPBM binding intensity (ln)” value amounted to 9.42 ± 0.23.
“ATATTATTTATAAAAGTGCAAAAATCACTTCTTTTA [GTGCAC_site9656]”: the “gcPBM binding intensity (ln)” value worked out at 8.34 ± 0.54.
On to “AAAAAAAGGAAATTTACACACACATATAATATACAT [CACACA_site3297]”, for which the “gcPBM binding intensity (ln)” value came to 9.45 ± 0.27.
“ATTTCCTTGAATGTTGCATGCTGTATTTTAATTAAA [TGCATGCA_site280]”: the “gcPBM binding intensity (ln)” value was found to be 8.9 ± 0.4.
Take TAGATTATTATACTAGTGCAAATTATTTAAGAAAAA: the “gcPBM binding intensity (ln)” value is 8.47 ± 0.52.
The same measure for “TAAATTTTTCTAAGTGCATGTTAATTTTTCAATTTA [TGCATGCA_site906]”: 8.39 ± 0.45.
In the case of “AAAAAAAAAAAGTGCACACATAAAAATATGATCTAA [CACACA_site572]”, the “gcPBM binding intensity (ln)” value came out at 9.07 ± 0.47.
In the case of “AAAAAAAGGTAAAATTGTACATACGCACAAAAATAT [XGTACX_site2887]”, the “gcPBM binding intensity (ln)” value stood at 9 ± 0.51.
As to “TGCACGCACAGACACACACACAACTAAAAAATAATG [CACACA_site7250]”, the “gcPBM binding intensity (ln)” value was determined as 9.54 ± 0.49.
“AATATATCAAAAATGATGACATAAATATATTAATTT [GTGCAC_negctrl_site530]”: the “gcPBM binding intensity (ln)” value was found to be 8.72 ± 0.41.
The same measure for TAATATCGTATATGAGTGCAATATTTTAGATTTTGA: 8.51 ± 0.42.
As for “TTTTTTTTTTTTGTCACACACCTTCATAAGAAAAAA [CACACA_site4779]”, the “gcPBM binding intensity (ln)” value came out at 8.53 ± 0.38.
Consider “ATGAAAAAACATAATTGTACAAAAGTTGGATTCGAT [XGTACX_site7732]”, for which the “gcPBM binding intensity (ln)” value is 9.39 ± 0.5.
As for “TAAATCCGCAGGCACACACACATATTAAGAAAAAAA [CACACA_site6061]”, the “gcPBM binding intensity (ln)” value was determined as 9.42 ± 0.51.
Turning to “GTACAGATATTGTACATACACACCTATATAAATATC [CACACA_site5739]”, the “gcPBM binding intensity (ln)” value is 9.17 ± 0.3.
Regarding “ATCATCACATAAGAAAATAGATAAAAAAAAAAAAAT [XGTACX_negctrl_site589]”, the “gcPBM binding intensity (ln)” value was 8.74 ± 0.59.
“ATTAAATGATTCATATGTACATAAATAAATAAATAT [XGTACX_site2249]”: the “gcPBM binding intensity (ln)” value came to 8.86 ± 0.35.
On to “TATTAATATTTACACACATGCGCACACATAAATAAA [TGCATGCA_site609]”, for which the “gcPBM binding intensity (ln)” value was 9.48 ± 0.29.
In the case of “TTTCTTTTTAAAGTGTATTAAAATTGAATAAAAAGA [XGTACX_negctrl_site408]”, the “gcPBM binding intensity (ln)” value was 8.05 ± 0.42.
Take “AAAGAGAAACAAAATTGTACATTATATTGTAGACGT [XGTACX_site976]”: the “gcPBM binding intensity (ln)” value amounted to 9.03 ± 0.35.
Regarding “TATATTTATAAGTGTACACATTATATAAATCCCTAT [CACACA_site6122]”, the “gcPBM binding intensity (ln)” value was found to be 8.65 ± 0.42.
Then “TGGGAACAATATATTTGTACTTAAATAAATAAAAAA [XGTACX_site6762]”, with 8.43 ± 0.64; and “GAACAAAATGATAGAAGTACAAATATTTATTTTGTT [XGTACX_site7146]”, with 8.8 ± 0.58.
